Experimental data as given in PubChem BioAssay AID686978 (National Center for Advancing Translational Sciences (NCATS), 2013).
Out of some 420,000 compounds screened, about 64,000 (15%) were called active. The inconclusive results got no clear call from the source; some entries with a clear call stand among them for comparison. The call rests on the fitted dose curve; in most records, active means well fitted inhibition curve with a large enough effect; inconclusive means small, poorly fitted or top-dose-only effect; inactive means flat fitted curve, though single readings scatter. No potency is given beside an inconclusive call; the fits are too rough.

Assay: qHTS for Inhibitors of human tyrosyl-DNA phosphodiesterase 1 (TDP1): qHTS in cells in absence of CPT; further: nearly all actives have a fitted effect of over 55% in size
Details: DT40 Tdp1-/- hTDP1 cells, no CPT, ATP luminescence, 48 h; activity change, negative = growth inhibition: at 46.2 µM (top of the series) unless noted
Summary of the method: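 Readout: luminescence from CellTiter-Glo after 30 min in the dark at RT. Cells: DT40 Tdp1-/- with stable hTDP1, 400/well. Exposure: compounds alone, ≥48 hr, 37 °C.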
On the % scale 0 is the no-effect control and ±100 the full control effect; potency means the concentration at half of the fitted maximal effect; tags describe the fitted curve by direction and shape.

Question: Which Potency does the source give for CCOc1cc(C(=O)CSc2nnc(CNc3ccc(Cl)cc3)o2)ccc1NC(=O)CC here?
Answer: The Potency was inconclusive [inhibitor, single point].

Question: With CCOC(=O)c1ccc(S(=O)(=O)N2CCN(C(=O)c3cccc(S(=O)(=O)N4CC(C)OC(C)C4)c3)CC2)cc1 (centres undefined) as the molecule, how does the Potency read?
Answer: Its Potency is active: 9.2 µM.

Question: For Cc1ccc(-n2c(C)nc3c(cnn3-c3ccccc3C)c2=O)cc1F, which Potency is on record?
Answer: The Potency was inconclusive [inhibitor, single point].

Question: For CCc1ccc2oc(-c3ccc(NC(=O)c4ccc(OC)c(Br)c4)cc3)nc2c1, which “activity change, negative = growth inhibition” value is on record?
Answer: Its value is inactive: -25.5%.

Question: For Cc1cc(Cl)c(OCCOCCN2CCCC(C)C2)c(Br)c1 (centres undefined), which Potency is on record?
Answer: Its Potency is active: 16.4 µM.

Question: Which Potency does the source give for COc1ccc(-n2ccnc(SCC(=O)NCc3ccccc3Cl)c2=O)cc1 here?
Answer: The Potency was inconclusive [inhibitor, partial curve].

Question: With CCOC(=O)CN1C(=O)CSc2ccc(S(=O)(=O)N3CCCC3)cc21 as the molecule, how does the Potency read?
Answer: Its Potency is inconclusive [inhibitor, full curve, poor fit].

Question: With COc1ccccc1C1CCN(C(=O)c2cccc([N+](=O)[O-])c2)CC1 as the molecule, how does the Potency read?
Answer: The Potency was active: 16.4 µM.

Question: Which “activity change, negative = growth inhibition” value does the source give for Cc1cc2c(cc(C(=O)NCc3cccnc3)n2Cc2ccc(Cl)cc2)o1 here?
Answer: The value was inactive: -4.28%.

Question: With COC(=O)[C@@H](Cc1ccccc1)NC(=O)Cn1cc(C)c(=O)[nH]c1=O as the molecule, how does the “activity change, negative = growth inhibition” value read?
Answer: The value was inactive: 2.95%.

Question: Which Potency does the source give for COc1ccc2c(-c3ccccc3)cc(SCC(=O)N(C)C)nc2c1 here?
Answer: The Potency was inconclusive [inhibitor, single point].

Question: With CCCCNC(=O)COC(=O)CCC(=O)c1ccc(Cl)cc1 as the molecule, how does the “activity change, negative = growth inhibition” value read?
Answer: Its value is inactive: -0.721%.

Question: With Cc1cc(C)cc(NC(=O)C(OC(=O)c2sccc2C)c2ccccc2)c1 (centres undefined) as the molecule, how does the Potency read?
Answer: The Potency was inconclusive [inhibitor, single point].

Question: For c1cncc(-c2nn3c(Cn4nnc5ccccc54)nnc3s2)c1, which Potency is on record?
Answer: Its Potency is inconclusive [inhibitor, single point].

Question: For C/C(=N\NC(=O)c1nnn(-c2nonc2N)c1-c1ccc2c(c1)OCO2)c1ccc(C)cc1, which “activity change, negative = growth inhibition” value is on record?
Answer: Its value is inactive: -0.627%.

Question: Which Potency does the source give for Cc1ccc(S(=O)(=O)N2CCN(C(=O)/C=C/c3ccccc3)CC2)cc1C here?
Answer: The Potency was inconclusive [inhibitor, single point].

Question: Which “activity change, negative = growth inhibition” value does the source give for COc1ccc(-c2cc(C(=O)NCC(C)C)no2)cc1 here?
Answer: Its value is inactive: -11.2%.

Question: For CC(C)(C)C1CCC(=O)N2CCC[C@]2(c2ccccc2)C1 (some centres undefined), which Potency is on record?
Answer: The Potency was inconclusive [inhibitor, single point].

Question: For O=C(/C=C/c1ccc(S(=O)(=O)N2CCOCC2)cc1)NC(=S)Nc1ccc(Cl)cc1Cl, which Potency is on record?
Answer: Its Potency is inconclusive [inhibitor, single point].

Question: With Cc1ccc(-c2cc(C(F)(F)F)n3nc(C(=O)Nc4ccc(Cl)c(C(F)(F)F)c4)cc3n2)cc1 as the molecule, how does the “activity change, negative = growth inhibition” value read?
Answer: Its value is inactive: -0.279%.

Question: For COC(=O)c1cccc(N(CC(=O)NC2CCCC2)C(=O)CNC(=O)c2cccs2)c1, which “activity change, negative = growth inhibition” value is on record?
Answer: Its value is inactive: 2.57%.

Question: With COc1ccc(-n2nc3c(c2NC(=O)c2ccc(S(=O)(=O)N4CCOCC4)cc2)CS(=O)(=O)C3)cc1 as the molecule, how does the “activity change, negative = growth inhibition” value read?
Answer: The value was inactive: 0.0493%.

Question: For COc1ccc(NC(=O)Cn2nnc(-c3ccccc3NS(=O)(=O)c3ccc(OC)cc3)n2)cc1, which Potency is on record?
Answer: Its Potency is inconclusive [inhibitor, partial curve].

Question: With Cc1ccc(NC(=O)COc2ccccc2[N+](=O)[O-])nc1 as the molecule, how does the Potency read?
Answer: The Potency was inconclusive [inhibitor, partial curve].

Question: With CC1C(=O)CC(c2ccc([N+](=O)[O-])cc2)NC1c1ccc([N+](=O)[O-])cc1 (centres undefined) as the molecule, how does the Potency read?
Answer: Its Potency is inconclusive [inhibitor, partial curve].

Question: With Cc1ccc([C@H]2C(C(=O)O)=CC[C@@H](c3ccc4c(c3)OCO4)N2S(=O)(=O)c2ccc(C)cc2)cc1 as the molecule, how does the “activity change, negative = growth inhibition” value read?
Answer: Its value is inactive: -27.7%.

Question: Which Potency does the source give for Cc1cccc(C(=O)N2CCCC(CCC(=O)N3CCN(c4ccccn4)CC3)C2)c1 (centres undefined) here?
Answer: Its Potency is inconclusive [inhibitor, single point].

Question: With CCN1CCN(S(=O)(=O)c2ccc(Cl)c(C(=O)N(C)C(c3ccccc3)c3ccccc3)c2)CC1 as the molecule, how does the Potency read?
Answer: Its Potency is inconclusive [inhibitor, single point].

Question: For Cn1cc(S(=O)(=O)c2ccccc2)c(=O)c2cc(F)c(N3CCN(c4ccccc4)CC3)cc21, which Potency is on record?
Answer: The Potency was inconclusive [inhibitor, single point].

Question: With COCC(=O)N(Cc1cc2ccc(C)c(C)c2n2nnnc12)C1CCCC1 as the molecule, how does the Potency read?
Answer: Its Potency is inconclusive [inhibitor, single point].

Question: Which “activity change, negative = growth inhibition” value does the source give for Cc1ccc(S(=O)(=O)NCC(=O)OCC(=O)NCc2cccs2)cc1 here?
Answer: The value was inactive: -11.2%.

Question: With Cc1cc(C)cc(NC(=O)c2cc(S(=O)(=O)NCc3ccco3)ccc2F)c1 as the molecule, how does the Potency read?
Answer: The Potency was active: 11.2 µM.

Question: Which Potency does the source give for CCCn1c(C(C)Nc2nc(-c3ccc(Cl)c([N+](=O)[O-])c3)cs2)nc2cc(Cl)c(N3CCCCC3)cc21 (centres undefined) here?
Answer: Its Potency is inconclusive [inhibitor, single point].

Question: For O=C(NCc1ccco1)C(c1ccco1)N(Cc1cccs1)C(=O)Cn1nnc2ccccc21 (centres undefined), which Potency is on record?
Answer: Its Potency is inconclusive [inhibitor, partial curve].

Question: For CC(C)c1nc(SCC(=O)Nc2ccc(N3CCOCC3)cc2)c2ccccc2n1, which Potency is on record?
Answer: The Potency was inconclusive [inhibitor, single point].

Question: For Cc1cccc(C)c1OCC(=O)Nc1nc(-c2ccc(Br)cc2)ns1, which Potency is on record?
Answer: Its Potency is active: 16.4 µM.

Question: With Cc1cc(C)c(Cn2c3ccccc3c3cnn(CC(=O)N4CCCCCC4)c(=O)c32)c(C)c1 as the molecule, how does the Potency read?
Answer: Its Potency is active: 23.1 µM.

Question: With CC(=O)c1ccc(N2CCN(C(=S)Nc3ccccc3)CC2)cc1 as the molecule, how does the Potency read?
Answer: The Potency was active: 20.6 µM.

Question: Which Potency does the source give for Cc1ccc(C(=O)NC(=S)NNC(=O)c2ccccc2[N+](=O)[O-])cc1 here?
Answer: The Potency was inconclusive [inhibitor, single point].

Question: For CCOC(=O)C1=C(C)NC2=C(C(=O)CCC2)C1c1cn(Cc2ccc(Cl)cc2Cl)nc1-c1ccccc1 (centres undefined), which Potency is on record?
Answer: Its Potency is active: 20.6 µM.

Question: Which Potency does the source give for CCOC(=O)c1cc(OC)c2cccc(CN3CCCC(C)(C(=O)NCCOC)C3)c2c1 (centres undefined) here?
Answer: The Potency was active: 6.51 µM.

Question: Which Potency does the source give for Cc1cccc(-n2nnc(C(=O)NCc3ccc4c(c3)OCO4)c2N)c1 here?
Answer: Its Potency is inconclusive [inhibitor, single point].

Question: Which “activity change, negative = growth inhibition” value does the source give for CCOc1ccc(C(=O)Nc2c(C(=O)Nc3ccccc3F)oc3ccccc23)cc1OCC here?
Answer: Its value is inactive: -11%.

Question: For O=C(Cn1c(=O)n(-c2cccc(Cl)c2)c(=O)c2sc3ccccc3c21)N1CCCC1, which Potency is on record?
Answer: The Potency was active: 14.6 µM.
